Values of other authors as cited in patent US11033516B1, “Combination therapies with disulfiram” (Spring Discovery, Inc., priority 2020, dated 2021).

Tested on: P-glycoprotein and CYP3A4
Conditions: in HeLa cell; cited from earlier work

Question: For `O=C(/C=C/C=C/c1ccc2c(c1)OCO2)N1CCCCC1` [Piperine], which “IC50 value, inhibits P-glycoprotein and CYP3A4 activities” value is on record?
Answer: activities with an IC50 value of 61.94 ± 0.054 μg/mL
